# Assay results published in the RNAGym collection of RNA variant scans (doi:10.1093/nar/gkz1192).
# The source gives no read counts; variants with many changes may rest on few reads.
# B1: CPEB3 Ribozyme (parent)
# chain: UAACAGGGGGCCACAGCAGAAGCGUUCACGUCGCAGCCCCUGUCAGAUUCUGGUGAAUCUGCGAAUUCUGCUGUAUAUCUC
# Variants of: B1
# Assay: self-cleavage, relative activity (ratio to wild type); higher = more cleavage; in vitro, sequencing
# Method in brief: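 Relative activity compares each variant's cleaved/total read fraction with that of the unmutated ribozyme. To get these fractions, barcoded CPEB3 ribozyme libraries from rounds of error-prone PCR were transcribed with T7 RNA polymerase for 5 hours at 37°C and then given 15 min of DNase I treatment before EDTA was added. The RNAs were reverse transcribed with template switching and sequenced on Illumina, and DNA sequencing linked barcodes to variants. A minimum of 5 reads applied, and three batches were averaged.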
row,Variant,self-cleavage
1,A28G U31G U60C,0.19
2,A28G U41A A47G,0.15
3,A28G U41A A64U,0.27
4,A28G U41A C50A,0.18
5,A28G U41A G55A,0.06
6,A28G U41A U54C U58C U60A U72A,0.08
7,A28G U41A U60A U78A,0.15
8,A28G U41A U60C,0.08
9,A28G U41A U69C U72C A77G,0.14
10,A28G U41C A47G A64G,0.26
11,A28G U41C A57G A77U U80C,0.5
12,A28G U41C C59A,0.12
13,A28G U41C C59G,0.21
14,A28G U41C C71G,0.09
15,A28G U41C G42A U69C,0.12
16,A28G U41C G70U,0
17,A28G U41C U54C C62A U66C,0.15
18,A28G U41C U60A C62U,0.06
19,A28G U41C U66C,0.2
20,A28G U41C U66C U69C U78C,0.12
21,A28G U41C U69C,0.14
22,A28G U41C U72C U74C,0.76
23,A28G U41G U43A U54A A64G,0.08
24,A28G U41G U43C A45G A75U,0.05

row,Variant,self-cleavage
1,A28G U41G U48C U51A,0.36
2,A28G U43A G52U,1.01
3,A28G U43A U54C U74A,1.14
4,A28G U43A U72C,0.75
5,A28G U43C A47G C62U A65U U72C,0.09
6,A28G U43C A64G A65U G73A,0.2
7,A28G U43C G52C,0.37
8,A28G U43C G55U U72A,0.03
9,A28G U43C G63A,0.19
10,A28G U43C U48A U60G,0.03
11,A28G U43C U49A U60C C62U U76G,0.03
12,A28G U43C U49A U60G C62U U72C,0.05
13,A28G U43C U49C,0.29
14,A28G U43C U54C U69A A75U U80A,0.15
15,A28G U43C U54G G61U,0.08
16,A28G U43C U58C,0.12
17,A28G U43C U60A U66C U78C,0.38
18,A28G U43G G46A,0.07
19,A28G U43G U58C,0.4
20,A28G U48A A77U,0.18
21,A28G U48A U49C,0.15
22,A28G U48C A56U,0.12
23,A28G U48C A57G A64G A65C G70C A75U,0.05
24,A28G U48C A57G U67A,0.24

row,Variant,self-cleavage
1,A28G U48C U51G G52A G53A,0.19
2,A28G U48C U69A,0.2
3,A28G U48C U69C,0.2
4,A28G U48G A56U A75G,0.11
5,A28G U49A U54G U58C,0.2
6,A28G U49C A57U,0.15
7,A28G U49C A64G G73A U76C,0.18
8,A28G U49C A75U,0.41
9,A28G U49C U51C U72C,0.48
10,A28G U49C U60A U69A,0.06
11,A28G U49C U72C,0.14
12,A28G U49C U76A,0.1
13,A28G U51A U58C G61A,0.2
14,A28G U51A U60C G63U,0.3
15,A28G U51A U60C U67A,0.09
16,A28G U51A U66A U78C,0.12
17,A28G U51A U69G,0.2
18,A28G U51A U76C,0.64
19,A28G U51C G53A U72A,0.41
20,A28G U51C U60C U67C A77G,0.08
21,A28G U51C U78C,0.54
22,A28G U51G U54C,0.45
23,A28G U54A G61A A65G U69A G70A U72C,0.12
24,A28G U54A G63A,0.63

row,Variant,self-cleavage
1,A28G U54C A64G,0.32
2,A28G U54C C79U,0.8
3,A28G U54C U58C A65G U74G,0.17
4,A28G U54C U60A,0.3
5,A28G U54G A64G A65U,0.17
6,A28G U54G G63U U74A,1.03
7,A28G U54G U67A,0.16
8,A28G U54G U76C A77G,0.23
9,A28G U58C U60C A75G,0.07
10,A28G U60C A64G,0.38
11,A28G U60C G61A,0.37
12,A28G U60C U66C U72C,0.13
13,A28G U60C U69A,0.17
14,A28G U60C U74A,0.36
15,A28G U60C U78C,0.11
16,A28G U60C U78G,0.18
17,A28G U60G U69A,0.14
18,A28G U60G U69A A77U C79A,0.07
19,A28G U60G U80C,0.16
20,A28G U66A C71A,0.15
21,A28G U66C U78A,0.18
22,A28G U67A U78C,0.21
23,A28G U67C U78A,0.14
24,A28G U69A U72A,0.09

row,Variant,self-cleavage
1,A28G U69A U76A,0.44
2,A28G U69A U80A,0.19
3,A28G U69C U80A,0.29
4,A28G U72A U80C,1.09
5,A28G U72C U74C,0.77
6,A28G U72C U76C,0.99
7,A28G U72C U80C,0.95
8,A28G U72G U78A,0.39
9,A28G U74C C79U U80G,0.98
10,A28G U76A U80A,0.86
11,A28U A35G A56U,0.99
12,A28U A35G U41A U43C U48C U80A,0.16
13,A28U A35G U41A U43C U80A,0.12
14,A28U A35G U41C U49A,0.93
15,A28U A35G U48C,0.45
16,A28U A35U A45G U60C U67C U76G,0.14
17,A28U A35U A45G U69G,0.16
18,A28U A35U C40A,0.19
19,A28U A35U U41A U54C,0.14
20,A28U A35U U41C A56G U60C A65G U67C,0.06
21,A28U A35U U43C,0.16
22,A28U A35U U48C,0.11
23,A28U A35U U54C U78C,0.12
24,A28U A35U U74A,0.51

row,Variant,self-cleavage
1,A28U A35U U78A,0.3
2,A28U A45C A56U U72A U76A,0.14
3,A28U A45C U51C C71G,0.49
4,A28U A45G A57G U69C U72A,0.13
5,A28U A45G U78A,0.66
6,A28U A45U U51A A56G A77U,0.13
7,A28U A45U U51C,0.12
8,A28U A45U U67G U72C U78A C79U,0.15
9,A28U A47G C71A G73A U76A,0.24
10,A28U A47G G61C A77U U80C,0.24
11,A28U A47G G61U U67A,0.16
12,A28U A47G U48C U69C,0.11
13,A28U A47G U49C A57G U74C,0
14,A28U A47G U69C U80C,0.38
15,A28U A47G U69G,0.5
16,A28U A47G U72C A77G,0.92
17,A28U A47U U48C A56G U76A,0.14
18,A28U A47U U54A,0.13
19,A28U A47U U60C A64G,0.16
20,A28U A47U U72C,0.29
21,A28U A56G U72G,0.46
22,A28U A56G U78C C79G,0.85
23,A28U A56U U69A,0.15
24,A28U A57G A64G,0.29

row,Variant,self-cleavage
1,A28U A57G C68A,0.23
2,A28U A57G U72A,0.5
3,A28U A64G A75U,0.87
4,A28U A64G U67C,0.16
5,A28U A64G U67C U72G,0.36
6,A28U A64G U74C,0.91
7,A28U A64G U76C,0.82
8,A28U A64U U72C,0.37
9,A28U C29A A45U U51C U67A U69A U80C,0.1
10,A28U C29A U41A U72A,0.19
11,A28U C29U A45G A64G,0.27
12,A28U C29U A56G A57G U69C U78A,0.08
13,A28U C29U U43A A64G U76G,0.33
14,A28U C29U U49C U72G,0.09
15,A28U C29U U51A U67C,0.13
16,A28U C32A A35G U67A U78C,0.09
17,A28U C32U C39U,0.14
18,A28U C34U C40U U48C,0.12
19,A28U C37G U43C A45G C79U,0.17
20,A28U C38A U41A C59U,0.15
21,A28U C38A U41C A47G U54A C59A U66C,0.06
22,A28U C39A A56G,0.19
23,A28U C39G U51A,0.11
